According to PMC6399350, “Heterologous calcium-dependent inactivation of Orai1 by neighboring TRPV1 channels modulates cell migration and wound healing” (Communications Biology, 2019):
Like-named read-outs stand apart in the source and are kept apart here. Results are given in words; binding and its absence hold for the method and conditions named. For some assays here: In cells and extracts the contact can be indirect. Some results given as binding are weak or reduced against the parent protein; the word gives no strength. For some assays here: Tags and fused reporters may be left off the sequences shown.

Amino acid sequences for entries named in this document (tags omitted).
UniProt Q5M848: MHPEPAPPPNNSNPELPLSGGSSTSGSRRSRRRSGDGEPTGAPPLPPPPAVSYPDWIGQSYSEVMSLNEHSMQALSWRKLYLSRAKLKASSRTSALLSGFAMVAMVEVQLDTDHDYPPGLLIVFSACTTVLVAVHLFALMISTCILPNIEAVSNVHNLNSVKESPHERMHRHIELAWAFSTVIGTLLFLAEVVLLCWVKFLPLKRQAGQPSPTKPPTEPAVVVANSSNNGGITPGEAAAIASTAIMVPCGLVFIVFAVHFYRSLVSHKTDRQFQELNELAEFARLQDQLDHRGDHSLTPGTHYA
UniProt Q96D31: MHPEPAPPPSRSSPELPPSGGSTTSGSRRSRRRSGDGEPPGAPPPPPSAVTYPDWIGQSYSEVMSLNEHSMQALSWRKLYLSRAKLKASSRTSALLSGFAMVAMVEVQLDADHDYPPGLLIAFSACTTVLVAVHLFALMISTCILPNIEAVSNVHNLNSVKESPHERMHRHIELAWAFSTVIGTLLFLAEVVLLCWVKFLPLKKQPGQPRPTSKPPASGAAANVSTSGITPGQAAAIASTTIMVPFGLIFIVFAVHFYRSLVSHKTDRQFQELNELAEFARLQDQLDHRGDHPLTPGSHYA

Experiments:
[1] = target: endogenous Orai1 of cortical astrocytes (rat (endogenous in primary cortical astrocytes)) (UniProt Q5M848); test: co-IP; endogenous proteins of rat primary cortical astrocytes; TNI lysis buffer; supernatant incubated overnight with sepharose beads coupled to anti-Orai1 antibody; western blot
c-Myc-Orai1 (human) [2] = target: c-Myc-Orai1 (human) (UniProt Q96D31); test: co-IP; c-Myc-Orai1 and partner overexpressed in HEK293; TNI lysis buffer (0.5% Igepal CA-630, 50 mM Tris pH 7.5, 250 mM NaCl, 1 mM EDTA); supernatant incubated overnight with sepharose beads coupled to anti-c-myc antibody; western blot
Orai1-YFP (human) = Orai1-YFP (human) (UniProt Q96D31); test: FRET or BRET; acceptor photobleaching FRET in co-transfected HEK293 cells, CFP fusion as donor and Orai1-YFP as acceptor, confocal microscope
c-Myc-Orai1 (human) [3] = target: c-Myc-Orai1 (human) (UniProt Q96D31); test: co-IP; c-Myc-Orai1 and partner overexpressed in HEK293; TNI lysis buffer (0.5% Igepal CA-630, 50 mM Tris pH 7.5, 250 mM NaCl, 1 mM EDTA); supernatant incubated overnight with sepharose beads coupled to anti-c-myc antibody; western blot; remark: listed apart in the source
[4] = target: Orai1-COOH-DsRed (carboxyl terminus of Orai1 fused to the red fluorescent protein) (human); test: peptide or protein array; TIRFM microarray; Orai1-COOH-DsRed printed on poly-D-lysine coated glass as bait, ANK domains fused to GFP in solution at 1 uM, 3 min incubation, wash with saline, GFP fluorescence read; both purified

**Q.** With “endogenous TRPV1 of cortical astrocytes (from UniProt O35433 1-838)” as the molecule, how does the binding [1] read?
**A.** binds

**Q.** TRPV1-YFP (from UniProt O35433-1 1-838) was tested. Which binding (c-Myc-Orai1 (human) [2]) did it give?
**A.** binds

**Q.** For TRPV1-CFP (from UniProt O35433-1 1-838), which binding (Orai1-YFP (human)) is on record?
**A.** binds

B1: ANK1-GFP (first ankyrin domain of rat TRPV1 fused to GFP) (domain or fragment)
chain: RLYDRRSIFDAVAQSNCQELESLLPFLQRSKKRLTDSEFKDPE
notes: ankyrin domain 1 of rat TRPV1, 110-152; source: HEK293, transfected, in lysate (co-IP); HEK293 in suspension, sonicated, immunoprecipitated with anti-GFP antibody (microarray); not shown: enhanced GFP, C-terminal, kept
**Q.** For B1, which binding (c-Myc-Orai1 (human) [3]) is on record?
**A.** binds

B2: ANK2-GFP (second ankyrin domain of rat TRPV1 fused to GFP) (domain or fragment)
chain: TGKTCLLKAMLNLHNGQNDTIALLLDVARKTDSLKQFVNASYTDSYY
notes: ankyrin domain 2 of rat TRPV1, 153-199; source: HEK293, transfected, in lysate (co-IP); HEK293 in suspension, sonicated, immunoprecipitated with anti-GFP antibody (microarray); not shown: enhanced GFP, C-terminal, kept
**Q.** For B2, which binding (c-Myc-Orai1 (human) [3]) is on record?
**A.** binds

B3: ANK3-GFP (third ankyrin domain of rat TRPV1 fused to GFP) (domain or fragment)
chain: KGQTALHIAIERRNMTLVTLLVENGADVQAAANGDFFKKTKGRPGFY
notes: ankyrin domain 3 of rat TRPV1, 200-246; source: HEK293, transfected, in lysate (co-IP); HEK293 in suspension, sonicated, immunoprecipitated with anti-GFP antibody (microarray); not shown: enhanced GFP, C-terminal, kept
**Q.** Which binding (c-Myc-Orai1 (human) [3]) does the source give for B3 here?
**A.** binds

**Q.** For VGNTVLHALVEVADNTVDNTKFVTSMYNEILILGAKLHPTLKLEEITNR (domain or fragment) [ANK5-GFP (fifth ankyrin domain of rat TRPV1 fused to GFP)], which binding [4] is on record?
**A.** no binding (tested: 1 μM)

**Q.** KGLTPLALAASSGKIGVLAYILQREIH (domain or fragment) [ANK6-GFP (sixth ankyrin domain of rat TRPV1 fused to GFP)] was tested. Which binding [4] did it give?
**A.** no binding (tested: 1 μM)
